Source: PubChem BioAssay AID686979 (National Center for Advancing Translational Sciences (NCATS), 2013)
About 50,000 (12%) of roughly 420,000 compounds were called active. The inconclusive results got no clear call from the source; some entries with a clear call stand among them for comparison. Calls follow the shape of the dose curve; as a rule, active = well fitted inhibition curve with a large enough effect; inconclusive = small, poorly fitted or top-dose-only effect; inactive = flat fitted curve, though single readings scatter. No potency is given beside an inconclusive call; the fits are too rough.

Assay: qHTS for Inhibitors of human tyrosyl-DNA phosphodiesterase 1 (TDP1): qHTS in cells in presence of CPT; also: nearly all actives have a fitted effect of over 55% in size
Conditions: chicken DT40 Tdp1-/-;hTDP1 cells + 20 nM CPT, ATP luminescence, 48 h; activity change, negative = growth inhibition: at 46.2 µM (top of the series)
In short: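 Cell growth measured by CellTiter-Glo luminescence after a minimum 48 h, 37 C compound exposure with 20 nM CPT in Tdp1-knockout DT40 cells stably expressing hTDP1, seeded 400/well; qHTS titration format.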
% is scaled to controls: 0 for no effect and ±100 for the full control effect; potency is read from the fitted curve at half-maximal effect; tags tell the direction and shape of the fitted curve.

Which Potency does the source give for Cn1c(Cl)c(/C=N/OC(=O)c2ccc(Cl)cc2)c2ccccc21 here?
Its Potency is “inactive”.

With CC(=O)Nc1ccc(/C=C/c2nc3ccccc3o2)cc1 as the molecule, how does the Potency read?
The Potency was inconclusive [inhibitor, single point].

For COc1cc(OC)cc(-c2c(-c3cccs3)c3cc(-c4ccc(N(C)C)nc4)ccc3n2C)c1, which Potency is on record?
The Potency was active: 23.1 µM.

With COc1cc([N+](=O)[O-])ccc1NC(=O)NNC(=O)C(C)Oc1ccc(F)cc1F (stereo not given) as the molecule, how does the Potency read?
The Potency was inconclusive [inhibitor, single point].

Which Potency does the source give for CCOC(=O)c1ccc(NC(=S)N(CCN(C)C)Cc2cccs2)cc1 here?
The Potency was active: 16.4 µM.

Which Potency does the source give for Cn1nc(C(=O)OCC(=O)Nc2ccc(SC(F)F)cc2)c2ccccc2c1=O here?
Its Potency is “inactive”.

For CCc1ccc(NC(=O)c2ccc3c(c2)CCN3S(C)(=O)=O)cc1, which Potency is on record?
Its Potency is inconclusive [inhibitor, single point].

For O=C(NCc1ccccc1Cl)C1CCC(=O)N(CC2CCCCC2)C1 (stereo not given), which Potency is on record?
The Potency was “inactive”.

For COc1ccc(OCCCC(=O)Nc2cccc([N+](=O)[O-])c2)cc1, which Potency is on record?
The Potency was inconclusive [inhibitor, single point].

Which Potency does the source give for O=C(N=C1c2ccccc2CN1c1ccccc1)c1cccc([N+](=O)[O-])c1 here?
Its Potency is “inactive”.

For O=C(N/N=C\c1ccc(F)cc1)c1ccc(Cn2cc(Br)c([N+](=O)[O-])n2)o1, which Potency is on record?
The Potency was inconclusive [inhibitor, single point].

With CCCCC(=O)N1C/C=C\C(c2ccc(OC)cc2)N(Cc2ccc(F)cc2)C(=O)C1 (stereo not given) as the molecule, how does the Potency read?
The Potency was inconclusive [inhibitor, single point].

Which Potency does the source give for COc1cc(CNCc2ccccn2)ccc1OCc1c(Cl)cccc1Cl here?
Its Potency is inconclusive [inhibitor, single point].

With COc1ccc(OC)c2[nH]c(=O)c(CCNC(=O)C(=O)c3c(C)[nH]c4ccccc34)cc12 as the molecule, how does the Potency read?
Its Potency is inconclusive [inhibitor, single point].

With Cc1ccc(S(=O)(=O)N(C)CC(=O)N2CCN(Cc3ccc4c(c3)OCO4)CC2)cc1 as the molecule, how does the Potency read?
Its Potency is inconclusive [inhibitor, single point].

For Oc1c(C(c2ccccc2)N2CCN(Cc3ccccc3)CC2)sc2nc(-c3ccco3)nn12 (stereo not given), which Potency is on record?
Its Potency is inconclusive [inhibitor, single point].

With CCCCCCOc1ccc(OC(=O)c2cccnc2)cc1 as the molecule, how does the Potency read?
The Potency was inconclusive [inhibitor, single point].

With COC(=O)/C=C1/N/C(=N\c2nc(C)cc(C)n2)N(c2cccc(C)c2)C1=O as the molecule, how does the Potency read?
Its Potency is inconclusive [inhibitor, single point].

For COC(CNC(=O)C1CCCN(S(=O)(=O)c2c(C)noc2/C=C/c2cccs2)C1)OC (stereo not given), which Potency is on record?
The Potency was inconclusive [inhibitor, single point].

Which Potency does the source give for Cc1ccc(OCC(=O)c2ccc3c(c2)CCCC3)cc1C here?
Its Potency is inconclusive [inhibitor, partial curve, poor fit].

For CC1=C(C(=O)OCC2CCCCC2)C(c2ccc(F)cc2F)CC(=O)N1 (stereo not given), which Potency is on record?
The Potency was inconclusive [inhibitor, partial curve].

With CC(C)C/C(O)=C/c1nc2cc(Cl)ccc2oc1=O as the molecule, how does the Potency read?
Its Potency is inconclusive [inhibitor, single point].

For COc1ccccc1CNC(=O)C(=O)NCC(c1cccs1)S(=O)(=O)c1ccc(F)cc1 (stereo not given), which Potency is on record?
Its Potency is inconclusive [inhibitor, single point].

With Cc1cc(=O)[nH]c(NN)n1 as the molecule, how does the Potency read?
Its Potency is inconclusive [inhibitor, single point].

Which Potency does the source give for COc1ccc(C(C#N)=Cc2ccccc2OC)cc1 here?
Its Potency is active: 6.51 µM.

With O=C(COc1ccc(/C=N/NC(=O)c2cc3ccccc3o2)cc1Cl)Nc1ccccc1 as the molecule, how does the Potency read?
The Potency was active: 5.17 µM.

With Cc1ccc(S(=O)(=O)N(CC(=O)NCc2cccnc2)c2ccc(F)cc2)cc1 as the molecule, how does the Potency read?
Its Potency is “inactive”.

With COc1ccccc1/C=C/C1(C(=O)NC2CCCC2)CC(=O)N1c1ccc(C)cc1 (stereo not given) as the molecule, how does the Potency read?
The Potency was inconclusive [inhibitor, single point].

Which Potency does the source give for Cc1nn2c(-c3cccc(NC(=O)CN4CCOCC4)c3)nnc2c2ccccc12 here?
The Potency was active: 29.1 µM.

With C[C@@H]1CN([C@@H](C)CO)S(=O)(=O)c2ccc(Br)cc2O[C@H]1CN(C)Cc1ccncc1 as the molecule, how does the Potency read?
Its Potency is inconclusive [inhibitor, single point].

Which Potency does the source give for COc1cc(Cl)c(C)cc1NC(=O)CCc1nc2cccnc2n1-c1ccccc1 here?
The Potency was inconclusive [inhibitor, partial curve].

Which Potency does the source give for Cc1cc(C)n(-c2ccc(C(=O)Nc3cccc(S(=O)(=O)N4CCCC4)c3)cc2)n1 here?
Its Potency is active: 18.4 µM.

For COc1ccc(NC(=O)[C@H](C)NS(=O)(=O)c2ccc(NC(C)=O)cc2)cc1Cl, which Potency is on record?
The Potency was “inactive”.

With C=C(NC(=O)C(=C)NC(=O)c1csc(C2=N[C@@H]3c4csc(n4)[C@H]4NC(=O)c5csc(n5)[C@H]([C@](C)(O)[C@@H](C)O)NC(=O)[C@H]5CSC(=N5)C(=CC)NC(=O)C([C@@H](C)O)NC(=O)c5csc(n5)[C@]3(CC2)NC(=O)[C@H](C)NC(=O)C(=C)NC(=O)[C@H](C)NC(=O)C([C@@H](C)CC)NC2C=Cc3c([C@H](C)O)cc(nc3C2O)C(=O)O[C@@H]4C)n1)C(N)=O (stereo not given in full) as the molecule, how does the Potency read?
Its Potency is active: 7.18 µM.

With O=S(=O)(NCC1CCCO1)c1ccc(S(=O)(=O)N(Cc2ccc(F)cc2)Cc2ccco2)cc1 (stereo not given) as the molecule, how does the Potency read?
Its Potency is inconclusive [inhibitor, single point].

With CCOc1ncccc1C(=O)N1CCN(S(=O)(=O)c2ccc(Br)cc2Cl)CC1 as the molecule, how does the Potency read?
The Potency was inconclusive [inhibitor, partial curve].

For CCOC(=O)c1c(NC(=O)C2C3C=CC(C3)C2C(=O)O)sc2c1CCC(C)C2 (stereo not given), which Potency is on record?
The Potency was “inactive”.

With O=C(Nc1ccccc1C(=O)N/N=C/c1ccco1)c1ccc(Cl)cc1 as the molecule, how does the Potency read?
Its Potency is inconclusive [inhibitor, single point].

Which Potency does the source give for COc1ccc(S(=O)(=O)Nc2cccc3c2O[C@H](CN(C)C(=O)Nc2ccccc2)[C@@H](C)CN([C@H](C)CO)C3=O)cc1 here?
The Potency was “inactive”.

For CCn1c(CCNC(=O)c2cccs2)nnc1SCC(=O)Nc1nc(-c2ccccc2)cs1, which Potency is on record?
The Potency was active: 16.4 µM.

With COc1ccc(NC(=O)Cn2c(SCc3cccc(Cl)c3)nc3ccncc32)c(OC)c1OC as the molecule, how does the Potency read?
Its Potency is active: 20.6 µM.

Which Potency does the source give for O=[N+]([O-])c1ccccc1S(=O)(=O)N/C(=N/S(=O)(=O)c1ccccc1)c1ccccc1 here?
Its Potency is “inactive”.

With C#CCOCCOCCOCCNc1nc(N2CCN(C(=O)[C@H]([C@@H](C)CC)n3cc(CCCN=C(N)N)nn3)CC2)nc(N2CCN(C(=O)[C@H](Cc3ccc(O)cc3)n3cc(CCO)nn3)CC2)n1 as the molecule, how does the Potency read?
Its Potency is “inactive”.

With COc1ccc(N=N/C(=C\O)C(=O)c2ccco2)cc1 as the molecule, how does the Potency read?
The Potency was “inactive”.

With Cc1nnc(NC(=O)c2nc(S(=O)(=O)Cc3ccccc3C)ncc2Cl)s1 as the molecule, how does the Potency read?
Its Potency is active: 14.6 µM.

With Cc1ccccc1NC(=S)NC(NC(=O)COc1ccccc1)C(Cl)(Cl)Cl (stereo not given) as the molecule, how does the Potency read?
Its Potency is inconclusive [inhibitor, partial curve].

With O=C(NCCSc1ncc(-c2ccc(F)cc2)[nH]1)c1ccco1 as the molecule, how does the activity change, negative = growth inhibition read?
The activity change, negative = growth inhibition was inconclusive: -34.8% [inhibitor].

For NC(=O)C1CCN(C(=O)c2ccc(Cl)c(S(=O)(=O)N3CCc4ccccc43)c2)CC1, which Potency is on record?
The Potency was inconclusive [inhibitor, single point].

With CC(=O)c1cc(CN2CCN(CCC(C)C)C(CCO)C2)cs1 (stereo not given) as the molecule, how does the Potency read?
The Potency was active: 16.4 µM.

With Cc1nnc(NC(=O)C2CCCN2S(=O)(=O)c2ccc(Cl)cc2)s1 (stereo not given) as the molecule, how does the Potency read?
Its Potency is “inactive”.

With Cc1cc(C)n(-c2ccc(C(=O)OCC(=O)NC(c3ccccc3)c3ccccc3)cc2)n1 as the molecule, how does the activity change, negative = growth inhibition read?
Its activity change, negative = growth inhibition is inconclusive: -34.5% [inhibitor].

With CCN(CC)CCCN(C(=O)Cn1nnc(-c2ccc(OC)c(OC)c2)n1)C(C(=O)NC(C)(C)C)c1ccc(F)cc1 (stereo not given) as the molecule, how does the Potency read?
The Potency was inconclusive [inhibitor, single point].

With C#CCN(C[C@@H]1[C@@H](OC(=O)NCc2ccc(OC)c(OC)c2)[C@@H](OC(=O)NCc2ccc(OC)c(OC)c2)Cn2c(=O)ccc(=O)n21)S(=O)(=O)c1ccc(C)cc1 as the molecule, how does the Potency read?
Its Potency is active: 16.4 µM.

Which Potency does the source give for Cn1c(=O)cc(SCC(=O)NCc2ccc(F)cc2)c2ccc(Cl)cc21 here?
The Potency was active: 2.59 µM.

With Cc1ccc(NCc2cccn2-c2nnc(N3CCCCCC3)s2)cc1 as the molecule, how does the Potency read?
The Potency was inconclusive [inhibitor, single point].

Which Potency does the source give for CCOC(=O)N1CCC(NS(=O)(=O)c2cc(C(=O)OC)n(C)c2)CC1 here?
Its Potency is “inactive”.

With O=C(COc1ccccc1[N+](=O)[O-])NCCCN1CCCC1=O as the molecule, how does the Potency read?
Its Potency is “inactive”.

Which Potency does the source give for COc1ccc2sc(C)[n+](C)c2c1 here?
Its Potency is inconclusive [inhibitor, single point].

For CCOc1ccccc1NC(=O)CCn1c(-c2ccc(OC)cc2)cc(C(C)=O)c1C, which Potency is on record?
The Potency was inconclusive [inhibitor, single point].

For Cc1cc(C)c2c(N=NN(C)C)[nH]nc2n1, which Potency is on record?
Its Potency is inconclusive [inhibitor, single point].

With c1csc(-c2nnc(COc3ccc4c(c3)OCO4)o2)c1 as the molecule, how does the Potency read?
The Potency was “inactive”.

For O=C(Nc1ccc(Nc2ccncc2)cc1)c1ccc([N+](=O)[O-])cc1, which Potency is on record?
Its Potency is active: 20.6 µM.

With CC(C)=N/N=C(/c1ccc([N+](=O)[O-])cc1)C12CN3CN(CN(C3)C1)C2 as the molecule, how does the Potency read?
Its Potency is inconclusive [inhibitor, single point].

Which Potency does the source give for Cc1ccccc1-c1cc(C(=O)NCc2cccs2)nn1CC1CC(c2cccc([N+](=O)[O-])c2)=NO1 (stereo not given) here?
Its Potency is inconclusive [inhibitor, single point].

For COc1cccc(N(C(=O)c2snc(C(N)=O)c2N)C(C(=O)NCC2CCCO2)c2cccs2)c1 (stereo not given), which Potency is on record?
Its Potency is inconclusive [inhibitor, single point].
